# From the supplement of paper PMC8728848
# The list shows a part of the results.
# B1: TbCVNHOb (Tuber borchii) (protein)
# chain: MSFYASSEDVRTIEEGGRTWLVGRARRADGSWQDIKLDLDNIIGNRDGHLTWGEQNFTQSASDIRFNFEGGSNVPVLRAKLRNAAGGEQESDLNLGERLTNNNGDLVFN
# Assays:
# Test in all cases: glycan array binding signal (z-score within array); higher = stronger binding
# Settings in all cases: glycan notation: IUPAC condensed, linker removed
# [1] = target: GlcNAc(b1-3)Gal(b1-3)GalNAc
# Outline: (§1)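 From the Consortium for Functional Glycomics database, 3228 arrays were curated, keeping only those whose protein sequence was available. Binding is given as a within-array Z-score averaged across arrays sharing a protein sequence and across linkers. Negative Z-scores can be read as non-binding.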
# GlcNAc(b1-3)Gal(b1-4)Glc = target: GlcNAc(b1-3)Gal(b1-4)Glc
# Outline: as §1
# [2] = target: GlcNAc(b1-3)Gal(b1-4)GlcNAc
# Outline: as §1
# [3] = target: GlcNAc(b1-3)Gal(b1-4)GlcNAc(b1-3)Gal(b1-4)GlcNAc
# Outline: as §1
# GlcNAc(b1-3)GalNAc = target: GlcNAc(b1-3)GalNAc
# Outline: as §1
# GlcNAc(b1-3)Man = target: GlcNAc(b1-3)Man
# Outline: as §1
# [4] = target: GlcNAc(b1-3)[GlcNAc(b1-4)][GlcNAc(b1-6)]GlcNAc
# Outline: as §1
# [5] = target: GlcNAc(b1-3)[GlcNAc(b1-6)]Gal(b1-4)GlcNAc
# Outline: as §1
# [6] = target: GlcNAc(b1-3)[GlcNAc(b1-6)]GalNAc
# Outline: as §1
# [7] = target: GlcNAc(b1-4)Gal(b1-4)GlcNAc
# Outline: as §1
# GlcNAc(b1-4)GlcNAc = target: GlcNAc(b1-4)GlcNAc
# Outline: as §1
# [8] = target: GlcNAc(b1-4)GlcNAc(b1-4)GlcNAc
# Outline: as §1
# [9] = target: GlcNAc(b1-4)GlcNAc(b1-4)GlcNAc(b1-4)GlcNAc(b1-4)GlcNAc
# Outline: as §1
# [10] = target: GlcNAc(b1-4)GlcNAc(b1-4)GlcNAc(b1-4)GlcNAc(b1-4)GlcNAc(b1-4)GlcNAc
# Outline: as §1
# [11] = target: GlcNAc(b1-4)[GlcNAc(b1-6)]GalNAc
# Outline: as §1
# [12] = target: GlcNAc(b1-6)Gal(b1-4)GlcNAc
# Outline: as §1
# GlcNAc(b1-6)GalNAc = target: GlcNAc(b1-6)GalNAc
# Outline: as §1
# GlcNAc3Prop(b1-4)GlcNAc = target: GlcNAc3Prop(b1-4)GlcNAc
# Outline: as §1
# Kdn(a2-3)Gal(b1-3)GlcNAc = target: Kdn(a2-3)Gal(b1-3)GlcNAc
# Outline: as §1
# Kdn(a2-3)Gal(b1-4)GlcNAc = target: Kdn(a2-3)Gal(b1-4)GlcNAc
# Outline: as §1
# [13] = target: Man(a1-2)Man(a1-2)Man(a1-3)Man
# Outline: as §1
# [14] = target: Man(a1-2)Man(a1-2)Man(a1-6)[Man(a1-3)]Man
# Outline: as §1
# Man(a1-2)Man(a1-3)Man = target: Man(a1-2)Man(a1-3)Man
# Outline: as §1
# [15] = target: Man(a1-2)Man(a1-3)[Man(a1-2)Man(a1-6)]Man
# Outline: as §1
# [16] = target: Man(a1-2)Man(a1-3)[Man(a1-2)Man(a1-6)]Man(a1-6)[Man(a1-2)Man(a1-2)Man(a1-3)]Man
# Outline: as §1
# [17] = target: Man(a1-2)Man(a1-3)[Man(a1-2)Man(a1-6)]Man(a1-6)[Man(a1-2)Man(a1-2)Man(a1-3)]Man(b1-4)GlcNAc(b1-4)GlcNAc
# Outline: as §1
# [18] = target: Man(a1-2)Man(a1-3)[Man(a1-2)Man(a1-6)]Man(a1-6)[Man(a1-3)[Man(a1-6)]Man(a1-6)]Man(b1-4)GlcNAc(b1-4)GlcNAc
# Outline: as §1
# [19] = target: Man(a1-2)Man(a1-3)[Man(a1-6)]Man(a1-6)[Man(a1-2)Man(a1-3)]Man(b1-4)GlcNAc(b1-4)GlcNAc
# Outline: as §1
# [20] = target: Man(a1-2)Man(a1-6)[Man(a1-3)]Man(a1-6)[Man(a1-2)Man(a1-2)Man(a1-3)]Man
# Outline: as §1
# [21] = target: Man(a1-2)Man(a1-6)[Man(a1-3)]Man(a1-6)[Man(a1-2)Man(a1-2)Man(a1-3)]Man(b1-4)GlcNAc(b1-4)GlcNAc
# Outline: as §1
# Man(a1-3)[Man(a1-6)]Man = target: Man(a1-3)[Man(a1-6)]Man
# Outline: as §1
# [22] = target: Man(a1-3)[Man(a1-6)]Man(a1-6)[Man(a1-2)Man(a1-3)]Man(b1-4)GlcNAc(b1-4)GlcNAc
# Outline: as §1
# [23] = target: Man(a1-3)[Man(a1-6)]Man(a1-6)[Man(a1-3)]Man
# Outline: as §1
# [24] = target: Man(a1-3)[Man(a1-6)]Man(a1-6)[Man(a1-3)]Man(b1-4)GlcNAc(b1-4)GlcNAc
# Outline: as §1
# [25] = target: Man(a1-3)[Man(a1-6)]Man(b1-4)GlcNAc(b1-4)GlcNAc
# Outline: as §1
# Man(a1-6)Man = target: Man(a1-6)Man
# Outline: as §1
# Man(b1-4)GlcNAc = target: Man(b1-4)GlcNAc
# Outline: as §1
# Neu5Ac(a2-3)Gal = target: Neu5Ac(a2-3)Gal
# Outline: as §1
# [26] = target: Neu5Ac(a2-3)Gal(b1-3)GalNAc
# Outline: as §1
# [27] = target: Neu5Ac(a2-3)Gal(b1-3)GalNAc(b1-3)Gal(a1-4)Gal(b1-4)Glc
# Outline: as §1
# [28] = target: Neu5Ac(a2-3)Gal(b1-3)GalNAc(b1-3)Gal(b1-4)GlcNAc
# Outline: as §1
# [29] = target: Neu5Ac(a2-3)Gal(b1-3)GalNAc(b1-4)[Neu5Ac(a2-3)]Gal(b1-4)Glc
# Outline: as §1
# [30] = target: Neu5Ac(a2-3)Gal(b1-3)GalNAc6S
# Outline: as §1
# [31] = target: Neu5Ac(a2-3)Gal(b1-3)GlcNAc
# Outline: as §1
# [32] = target: Neu5Ac(a2-3)Gal(b1-3)GlcNAc(b1-3)Gal(b1-3)GlcNAc
# Outline: as §1
binder,measurement,setting,value
B1,glycan array binding signal (z-score),[1],0.011
same,glycan array binding signal (z-score),GlcNAc(b1-3)Gal(b1-4)Glc,-0.161
same,glycan array binding signal (z-score),[2],-0.21
same,glycan array binding signal (z-score),[3],-0.144
same,glycan array binding signal (z-score),GlcNAc(b1-3)GalNAc,-0.039
same,glycan array binding signal (z-score),GlcNAc(b1-3)Man,-0.103
same,glycan array binding signal (z-score),[4],0.048
same,glycan array binding signal (z-score),[5],0.039
same,glycan array binding signal (z-score),[6],-0.084
same,glycan array binding signal (z-score),[7],-0.099
same,glycan array binding signal (z-score),GlcNAc(b1-4)GlcNAc,-0.149
same,glycan array binding signal (z-score),[8],-0.075
same,glycan array binding signal (z-score),[9],-0.323
same,glycan array binding signal (z-score),[10],-0.297
same,glycan array binding signal (z-score),[11],-0.146
same,glycan array binding signal (z-score),[12],0.009
same,glycan array binding signal (z-score),GlcNAc(b1-6)GalNAc,-0.348
same,glycan array binding signal (z-score),GlcNAc3Prop(b1-4)GlcNAc,0.314
same,glycan array binding signal (z-score),Kdn(a2-3)Gal(b1-3)GlcNAc,-0.178
same,glycan array binding signal (z-score),Kdn(a2-3)Gal(b1-4)GlcNAc,-0.282
same,glycan array binding signal (z-score),[13],1.35
same,glycan array binding signal (z-score),[14],0.239
same,glycan array binding signal (z-score),Man(a1-2)Man(a1-3)Man,0.061
same,glycan array binding signal (z-score),[15],-0.144
same,glycan array binding signal (z-score),[16],-0.124
same,glycan array binding signal (z-score),[17],-0.166
same,glycan array binding signal (z-score),[18],0.161
same,glycan array binding signal (z-score),[19],0.106
same,glycan array binding signal (z-score),[20],-0.185
same,glycan array binding signal (z-score),[21],-0.2
same,glycan array binding signal (z-score),Man(a1-3)[Man(a1-6)]Man,-0.037
same,glycan array binding signal (z-score),[22],-0.153
same,glycan array binding signal (z-score),[23],-0.153
same,glycan array binding signal (z-score),[24],0.196
same,glycan array binding signal (z-score),[25],-0.184
same,glycan array binding signal (z-score),Man(a1-6)Man,-0.16
same,glycan array binding signal (z-score),Man(b1-4)GlcNAc,-0.309
same,glycan array binding signal (z-score),Neu5Ac(a2-3)Gal,-0.241
same,glycan array binding signal (z-score),[26],-0.21
same,glycan array binding signal (z-score),[27],0.054
same,glycan array binding signal (z-score),[28],-0.124
same,glycan array binding signal (z-score),[29],-0.096
same,glycan array binding signal (z-score),[30],-0.237
same,glycan array binding signal (z-score),[31],-0.255
same,glycan array binding signal (z-score),[32],-0.262
